{"source": "the supplement of paper PMC8821664", "note": "Structures can show the parent of a compound that is named as a salt. This is one part of the list. Many values rest on one well or one pass, so single values are uncertain.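 Further: monoclonal Beas-2B line stably carrying CMV promoter-driven AQP5-HiBiT, 5,000 cells per well in 384-well plates, lytic HiBiT plus LgBiT NanoLuc luminescence, FDA-approved drug library screen.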", "data": [{"system": "Beas-2B AQP5-HiBiT reporter cells", "test": "AQP5-HiBiT luminescence relative to vehicle (ratio to vehicle); higher = higher AQP5-HiBiT protein abundance", "details": "10 µM; 18 h", "values": [{"smiles": "CN[C@H]1CC[C@@H](c2ccc(Cl)c(Cl)c2)c2ccccc21", "note": "[Sertraline hydrochloride]", "AQP5-HiBiT luminescence": 0.918}, {"smiles": "CN(CCOc1ccc(CC2SC(=O)NC2=O)cc1)c1ccccn1", "note": "(stereo not given) [Rosiglitazone]", "AQP5-HiBiT luminescence": 1.06}, {"smiles": "Cc1cc(Nc2ncc(Cl)c(Nc3ccccc3S(=O)(=O)C(C)C)n2)c(OC(C)C)cc1C1CCNCC1", "note": "[LDK378(Ceritinib)]", "AQP5-HiBiT luminescence": 0.282}, {"smiles": "Cc1ccc(S(=O)(=O)NC(=O)NN2CCCCCC2)cc1", "note": "[Tolazamide]", "AQP5-HiBiT luminescence": 0.465}, {"smiles": "CN(C)CCC=C1c2ccccc2C=Cc2ccccc21", "note": "[Cyclobenzaprine hydrochloride]", "AQP5-HiBiT luminescence": 1.33}, {"smiles": "Cc1cc2nc3c(=O)[nH]c(=O)nc-3n(C[C@H](O)[C@H](O)[C@H](O)CO)c2cc1C", "note": "[Riboflavin]", "AQP5-HiBiT luminescence": 1.07}, {"smiles": "CCOC(=O)[C@H](CCc1ccccc1)N[C@@H](C)C(=O)N1[C@H](C(=O)O)C[C@@H]2CCC[C@@H]21", "note": "[Ramipril]", "AQP5-HiBiT luminescence": 0.898}, {"smiles": "NC(=O)N1c2ccccc2CC(=O)c2ccccc21", "note": "[Oxcarbazepine]", "AQP5-HiBiT luminescence": 1.22}, {"smiles": "CCC(=O)O[C@@H](O[P@](=O)(CCCCc1ccccc1)CC(=O)N1C[C@H](C2CCCCC2)C[C@H]1C(=O)O)C(C)C", "note": "[Fosinopril sodium]", "AQP5-HiBiT luminescence": 0.993}, {"smiles": "Clc1ccccc1CN1CCc2sccc2C1", "note": "[Ticlopidine hydrochloride]", "AQP5-HiBiT luminescence": 0.889}, {"smiles": "CC(=O)c1c(C)c2cnc(Nc3ccc(N4CCNCC4)cn3)nc2n(C2CCCC2)c1=O", "note": "[Palbociclib]", "AQP5-HiBiT luminescence": 0.728}, {"smiles": "CC1OC2(CS1)CN1CCC2CC1", "note": "(stereo not given) [Cevimeline hydrochloride hemihydrate]", "AQP5-HiBiT luminescence": 0.648}, {"smiles": "O=C(CCCCCCC(=O)Nc1ccccc1)NO", "note": "[Vorinostat (SAHA, MK0683)]", "AQP5-HiBiT luminescence": 1.19}, {"smiles": "COc1ccccc1OCC(O)CN1CCN(CC(=O)Nc2c(C)cccc2C)CC1", "note": "(stereo not given) [Ranolazine 2hydrochloride]", "AQP5-HiBiT luminescence": 1.32}, {"smiles": "Clc1ccc(C(Cn2ccnc2)OCc2ccsc2Cl)c(Cl)c1", "note": "(stereo not given) [Vagistat]", "AQP5-HiBiT luminescence": 0.477}, {"smiles": "Cc1onc(-c2ccccc2)c1-c1ccc(S(N)(=O)=O)cc1", "note": "[Valdecoxib]", "AQP5-HiBiT luminescence": 0.823}, {"smiles": "CCc1ccc(CCOc2ccc(CC3SC(=O)NC3=O)cc2)nc1", "note": "(stereo not given) [Pioglitazone]", "AQP5-HiBiT luminescence": 1.01}, {"smiles": "O=c1cc[nH]c(=O)[nH]1", "note": "[Uracil]", "AQP5-HiBiT luminescence": 0.621}, {"smiles": "CCN1CC(CCN2CCOCC2)C(c2ccccc2)(c2ccccc2)C1=O", "note": "(stereo not given) [Doxapram hydrochloride]", "AQP5-HiBiT luminescence": 1.17}, {"smiles": "CC(C)(C)NC[C@H](O)COc1nsnc1N1CCOCC1", "note": "[Timolol Maleate]", "AQP5-HiBiT luminescence": 1.55}, {"smiles": "NCCc1c[nH]cn1", "note": "[Histamine]", "AQP5-HiBiT luminescence": 1.16}, {"smiles": "CC1(C)S[C@@H]2[C@H](NC(=O)[C@H](N)c3ccccc3)C(=O)N2[C@H]1C(=O)O", "note": "[Ampicillin Trihydrate]", "AQP5-HiBiT luminescence": 0.845}, {"smiles": "C#CCN(C)Cc1ccccc1", "note": "[Pargyline]", "AQP5-HiBiT luminescence": 0.624}, {"smiles": "CC(=O)OC[C@H]1O[C@@H]([S-])[C@H](OC(C)=O)[C@@H](OC(C)=O)[C@@H]1OC(C)=O.CCP(CC)CC.[Au+]", "note": "[Auranofin]", "AQP5-HiBiT luminescence": 0.271}, {"smiles": "C[C@H]1O[C@@H](O[C@H]2[C@@H](O)C[C@H](O[C@H]3[C@@H](O)C[C@H](O[C@H]4CC[C@@]5(C)[C@H](CC[C@@H]6[C@@H]5C[C@@H](O)[C@]5(C)[C@@H](C7=CC(=O)OC7)CC[C@]65O)C4)O[C@@H]3C)O[C@@H]2C)C[C@H](O)[C@@H]1O", "note": "[Digoxin]", "AQP5-HiBiT luminescence": 2.89}, {"smiles": "CCn1cc(C(=O)O)c(=O)c2ccc(C)nc21", "note": "[Nalidixic acid]", "AQP5-HiBiT luminescence": 0.831}, {"smiles": "CC(Oc1c(Cl)cccc1Cl)C1=NCCN1", "note": "(stereo not given) [Lofexidine hydrochloride]", "AQP5-HiBiT luminescence": 1.18}, {"smiles": "COc1cc(C(=O)NS(=O)(=O)c2ccccc2C)ccc1Cc1cn(C)c2ccc(NC(=O)OC3CCCC3)cc12", "note": "[Zafirlukast]", "AQP5-HiBiT luminescence": 0.667}, {"smiles": "C=CC(N)CCC(=O)O", "note": "(stereo not given) [Vigabatrin]", "AQP5-HiBiT luminescence": 1.05}, {"smiles": "Cc1c(-c2ccccc2)oc2c(C(=O)OCCN3CCCCC3)cccc2c1=O", "note": "[Flavoxate hydrochloride]", "AQP5-HiBiT luminescence": 1.24}, {"smiles": "Nc1ccc(S(N)(=O)=O)cc1", "note": "[Sulfanilamide]", "AQP5-HiBiT luminescence": 0.876}, {"smiles": "Cc1nc2n(c(=O)c1CCN1CCC(c3noc4cc(F)ccc34)CC1)CCCC2O", "note": "(stereo not given) [Paliperidone]", "AQP5-HiBiT luminescence": 1.18}, {"smiles": "CC[C@]1(O)C[C@@H]2CN(CCc3c([nH]c4ccccc34)[C@@](C(=O)OC)(c3cc4c(cc3OC)N(C)[C@H]3[C@@](O)(C(=O)OC)[C@H](OC(C)=O)[C@]5(CC)C=CCN6CC[C@]43[C@@H]65)C2)C1", "note": "[Vinblastine sulfate]", "AQP5-HiBiT luminescence": 2.71}, {"smiles": "CCOc1nc2cccc(C(=O)OC(C)OC(=O)OC3CCCCC3)c2n1Cc1ccc(-c2ccccc2-c2nn[nH]n2)cc1", "note": "(stereo not given) [Candesartan Cilexetil]", "AQP5-HiBiT luminescence": 10.6}, {"smiles": "O=C(Nc1ccc([N+](=O)[O-])cc1Cl)c1cc(Cl)ccc1O", "note": "[Niclosamide]", "AQP5-HiBiT luminescence": 14.1}, {"smiles": "CCCCOc1cc(C(=O)NCCN(CC)CC)c2ccccc2n1", "note": "[Dibucaine]", "AQP5-HiBiT luminescence": 0.788}, {"smiles": "NCC[C@H](O)C(=O)N[C@@H]1C[C@H](N)[C@@H](O[C@H]2O[C@H](CN)[C@@H](O)[C@H](O)[C@H]2O)[C@H](O)[C@H]1O[C@H]1O[C@H](CO)[C@@H](O)[C@H](N)[C@H]1O", "note": "[Amikacin]", "AQP5-HiBiT luminescence": 1.1}, {"smiles": "NC(=O)Cc1cccc(C(=O)c2ccccc2)c1N", "note": "[Nepafenac]", "AQP5-HiBiT luminescence": 0.997}, {"smiles": "N=C(N)N/N=C/c1c(Cl)cccc1Cl", "note": "[Guanabenz Acetate]", "AQP5-HiBiT luminescence": 1.03}, {"smiles": "CCN(CC)C(=O)N1CCN(C)CC1", "note": "[Diethylcarbamazine citrate]", "AQP5-HiBiT luminescence": 0.899}]}]}
